Out of some 350,000 compounds screened, about 31,000 (8.9%) were called active. This list was built around the results that the source calls inconclusive (neither active nor inactive); the mix of calls is not that of the screen. Calls come from the whole dose curve; as a rule, active = well fitted inhibition curve with a large enough effect; inconclusive = small, poorly fitted or top-dose-only effect; inactive = no such curve, though single readings can be large or run the other way. Where the call is inconclusive, the potency comes from a doubtful curve fit. More than one record can exist for a structure, and the calls need not agree.
molecular target: Histone-lysine N-methyltransferase EHMT2 (Homo sapiens) (UniProt Q96KQ7); experiment: qHTS Assay for Inhibitors of Histone Lysine Methyltransferase G9a; settings: G9a H3K9 monomethylation, AlphaScreen, 2 h; activity, negative = inhibition: at 59 µM (top of the series) unless noted; note: nearly all actives have a fitted effect of over 75% in size
Method in brief: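 Enzyme 20 nM + cpd, 15 min RT; add b-H3K9 pep 500 nM / SAM 20 uM; 2 h RT; anti-H3K9me1 Ab 0.5 ug/mL + SA donor / anti-rabbit acceptor beads 20 ug/mL each, 10 min; AlphaScreen read.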
% is set by controls: 0 for no effect and ±100 for the full control effect; potency is the fitted concentration of half-maximal effect; tags give direction and shape of the fitted curve.

UniProt Q96KQ7, sequence (Q96KQ7 whole entry, looked up): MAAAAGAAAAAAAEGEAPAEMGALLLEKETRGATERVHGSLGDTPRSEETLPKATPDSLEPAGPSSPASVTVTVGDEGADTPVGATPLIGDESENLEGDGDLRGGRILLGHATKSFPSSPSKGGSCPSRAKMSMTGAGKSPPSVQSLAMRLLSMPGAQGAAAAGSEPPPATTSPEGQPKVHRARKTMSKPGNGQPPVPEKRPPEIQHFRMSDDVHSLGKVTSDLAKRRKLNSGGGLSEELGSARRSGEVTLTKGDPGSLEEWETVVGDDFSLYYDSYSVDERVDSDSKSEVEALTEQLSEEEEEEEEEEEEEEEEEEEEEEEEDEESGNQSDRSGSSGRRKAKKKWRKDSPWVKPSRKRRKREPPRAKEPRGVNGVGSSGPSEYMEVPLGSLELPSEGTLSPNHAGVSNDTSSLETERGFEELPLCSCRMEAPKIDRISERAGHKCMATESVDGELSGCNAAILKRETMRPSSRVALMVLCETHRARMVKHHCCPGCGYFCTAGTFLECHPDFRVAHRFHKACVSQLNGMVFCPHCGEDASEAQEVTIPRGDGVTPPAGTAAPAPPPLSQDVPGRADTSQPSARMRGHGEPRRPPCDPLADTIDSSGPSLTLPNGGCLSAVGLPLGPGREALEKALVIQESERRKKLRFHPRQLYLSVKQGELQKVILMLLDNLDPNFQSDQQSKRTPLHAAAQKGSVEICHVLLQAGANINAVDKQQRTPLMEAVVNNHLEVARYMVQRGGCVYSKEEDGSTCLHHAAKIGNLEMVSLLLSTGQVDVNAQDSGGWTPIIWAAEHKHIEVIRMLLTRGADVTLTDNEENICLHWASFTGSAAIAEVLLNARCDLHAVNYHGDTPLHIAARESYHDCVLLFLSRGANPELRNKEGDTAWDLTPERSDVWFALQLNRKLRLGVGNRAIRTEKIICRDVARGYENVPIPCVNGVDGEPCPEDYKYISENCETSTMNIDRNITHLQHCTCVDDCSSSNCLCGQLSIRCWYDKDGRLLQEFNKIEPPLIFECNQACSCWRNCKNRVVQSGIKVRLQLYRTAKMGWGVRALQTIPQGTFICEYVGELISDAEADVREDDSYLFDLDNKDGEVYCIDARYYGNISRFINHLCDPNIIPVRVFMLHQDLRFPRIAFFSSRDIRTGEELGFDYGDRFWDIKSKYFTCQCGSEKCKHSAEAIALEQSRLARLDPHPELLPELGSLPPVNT

| Compound | Potency | activity, negative = inhibition |
| --- | --- | --- |
| c1ccc2c(c1)OCC(c1nnc3sc(-c4cnccn4)nn13)O2 (stereo unspecified) | active: 7.94 µM | – |
| C=CCNC(=O)c1oc2ccc(S(=O)(=O)N(CC)CC)cc2c1C | – | inconclusive: -72.8% [inhibitor] [at 102 µM] |
| CCOc1ccc(/C=N/n2c(C)nc3ccccc3c2=O)cc1 | – | inactive: -33.1% [at 2.33 µM] |
| COc1ccc(N2C(=O)CC(SC(C)C)C2=O)cc1 (stereo unspecified) | – | inactive: -27.2% [at 102 µM] |
| O=C(COC(=O)c1cc([N+](=O)[O-])ccc1NCc1ccccc1Cl)NCC(F)(F)F | – | inactive: 22.2% |
| Cc1cc(=O)n(CCO)c(O)c1C#N | inconclusive: 1.78 µM [inhibitor, partial curve] | – |
| CC12CCC(=O)N1C(C(=O)Nc1ccc(F)c(F)c1F)CS2 (stereo unspecified) | – | inactive: 13.3% [at 12.7 µM] |
| CCSC1=NC(=O)/C(=C2/C=Cc3ccccc3N2CC)S1 | inconclusive: 2.51 µM [inhibitor, partial curve, poor fit] | – |
| COC(=O)c1[nH]c2ccc(Br)cc2c1NC(=O)Oc1ccccc1 | active: 11.2 µM | – |
| CCOc1ccc(S(=O)(=O)NCc2ccco2)c2ccccc12 | inconclusive: 39.8 µM [inhibitor, single point] | – |
| O=C(C[n+]1cccc2ccccc21)c1ccc(NC(=O)c2ccccc2)cc1 | active: 25.1 µM | – |
| O=C(NC(=S)Nc1cccnc1)c1cccc(Br)c1 | active: 35.5 µM | – |
| COc1ccccc1C1C(C(=O)c2sc(C)nc2C)=C(O)C(=O)N1CCN1CCOCC1 (stereo unspecified) | active: 39.8 µM | – |
| O=C(Oc1ccccc1)N1CCC2(CCCN(c3ccccn3)C2)CC1 | – | inactive: -4.57% [at 12.7 µM] |
| COCCOc1ccc(C(F)(F)F)cc1NC(=O)CN1C(=O)NC(C)(c2ccc3c(c2)OCO3)C1=O (stereo unspecified) | – | inactive: -8.08% |
| COc1ccc(CN2C(=O)c3ccccc3C2C(=O)NC2CCCC2)c(OC)c1 (stereo unspecified) | inconclusive: 79.4 µM [inhibitor, partial curve] | – |
| Cc1c(Cl)cccc1-n1c(SCC(=O)N2CCC(C(=O)O)CC2)nc2ccccc2c1=O | – | inactive: -6.81% [at 102 µM] |
| CCOC(=O)COc1ccc(C2NC(C(=O)O)CS2)cc1 (stereo unspecified) | inconclusive: 2.82 µM [inhibitor, partial curve, poor fit] | – |
| Cc1nnsc1NC(=O)OCC(C)(C)C | active: 50.1 µM | – |
| COc1cc(/C=C2\SC(=S)N(NC(=O)c3ccncc3)C2=O)ccc1O | active: 44.7 µM | – |
| O=C(c1cccc(N2C(=O)C3C4C=CC(C4)C3C2=O)c1)N1CCN(c2ccccc2F)CC1 (stereo unspecified) | – | inactive: -1.25% [at 102 µM] |
| CN1CCN(c2ccc(Cl)cc2NC(=O)c2ccc(S(=O)(=O)N(C)C)cc2)CC1 | – | inactive: -13.8% [at 102 µM] |
| CCN(CC)S(=O)(=O)c1ccc(N2CCCC2)c(NC(=O)c2ccncc2)c1 | active: 31.6 µM | – |
| N#C/C(=C\c1c(N2CCC(C(N)=O)CC2)nc2ccccn2c1=O)S(=O)(=O)c1ccccc1 | inconclusive: 79.4 µM [inhibitor, single point] | – |

| Compound | Potency | activity, negative = inhibition |
| --- | --- | --- |
| CCN(CC(=O)NCc1cccs1)C(=O)COc1ccc(C(N)=O)cc1 | – | inactive: -12.1% |
| O=C(NCc1ccc2c(c1)OCO2)c1c[nH]c2ccc(S(=O)(=O)N3CCOCC3)cc2c1=O | inconclusive: 89.1 µM [inhibitor, single point] | – |
| COc1ccc(-c2noc(CCC(=O)N3CCC(C)CC3)n2)cc1 | inconclusive: 10 µM [inhibitor, partial curve, poor fit] | – |
| COc1ccc(-c2cnc(C)o2)cc1S(=O)(=O)Nc1c(C)cc(C)cc1C | – | inactive: 4.07% |
| CCc1cc(C(=O)Nc2sc(C)c(CC)c2C#N)no1 | active: 2.51 µM | – |
| Nc1nc2ncc(C(=O)c3cc(Cl)cc(Cl)c3O)cc2s1 | active: 50.1 µM | – |
| COc1ccc(/C=[N+](\[O-])C2N(c3ccccc3)C(=S)SC2(C)C)cc1OC (stereo unspecified) | inconclusive: 89.1 µM [inhibitor, single point] | – |
| COc1ccc2nc(NC(=O)c3ccccc3[N+](=O)[O-])sc2c1 | inconclusive: 25.1 µM [inhibitor, partial curve, poor fit] | – |
| Cc1ccc(NC(=O)COC(=O)c2c(C)nn(-c3ccccc3)c2C)cc1 | inconclusive: 12.6 µM [inhibitor, single point] | – |
| N#CC1(NC(=O)COc2cc(F)ccc2[N+](=O)[O-])CCCCC1 | inconclusive: 3.16 µM [inhibitor, single point] | – |
| Cc1ccc(Cl)cc1N1CCN(C(=O)c2c(C)oc3ncnc(N4CCCCC4)c23)CC1 | inconclusive: 14.1 µM [inhibitor, partial curve, poor fit] | – |
| C[C@H](NC(=O)[C@@H]1Cc2ccccc2CN1C(=O)OC(C)(C)C)C(=O)NC1CCCCC1 | – | inactive: 10% [at 102 µM] |
| Cc1[nH]n(-c2ccccc2)c(=O)c1N=Nc1ccc2c(c1)OCCO2 | active: 7.08 µM | – |
| CCc1ccc(C(C)NC(=O)Cn2cnc3c(=O)n(C)c(=O)n(C)c32)cc1 (stereo unspecified) | – | inactive: 0.229% |
| O=C(CCc1nnc(CCCc2ccccc2)o1)NCC(F)(F)F | inconclusive: 50.1 µM [inhibitor, partial curve, poor fit] | – |
| CC(=O)N/N=C/c1cc(C)n(-c2ccc(Br)cc2)c1C | inconclusive: 28.2 µM [inhibitor, single point] | – |
| C=CCc1cc(/C=N\NC(=O)CSc2nnc(CCCc3ccc(OC)c(C)c3)o2)cc(OC)c1O | inconclusive: 2.82 µM [inhibitor, partial curve, poor fit] | – |
| C#CCOCCOCCOCCNc1nc(N2CCN(C(=O)[C@H](Cc3cc4ccccc4[nH]3)n3cc([C@@H](N)C(C)CC)nn3)CC2)nc(N2CCN(C(=O)[C@H](Cc3cc4ccccc4[nH]3)n3cc([C@@H](N)CC(C)C)nn3)CC2)n1 (stereo partly specified) | – | inconclusive: -92.5% [inhibitor] |
| CN1CCN(c2ccc(C(=O)NC3CCCCC3)cc2[N+](=O)[O-])CC1 | inconclusive: 44.7 µM [inhibitor, partial curve] | – |
| O=C(COc1ccccc1)N=C1SC2CS(=O)(=O)CC2N1c1ccc(F)cc1 (stereo unspecified) | – | inactive: 18.3% [at 102 µM] |
| N[C@@H](Cc1ccc(F)cc1)C(=O)O | active: 10 µM | inactive: 42.3% [at 12.7 µM] |
| CCOC(=O)N1CCC(NC(=O)c2cnn(-c3cccc(F)c3)c2-n2cccc2)CC1 | – | inactive: -1.81% |
| CCCCOc1ccc(NC2=NC3(CCCCC3)N=C(N)N2)cc1 | inconclusive: 28.2 µM [inhibitor, full curve] | – |
| COc1ccccc1CNS(=O)(=O)c1ccc2[nH]cc(C(=O)O)c(=O)c2c1 | – | inactive: -20.9% |

| Compound | Potency | activity, negative = inhibition |
| --- | --- | --- |
| O=S(=O)(c1ccc(F)cc1)c1nc(-c2ccccc2)oc1N1CCOCC1 | inconclusive: 56.2 µM [inhibitor, partial curve, poor fit] | – |
| Cc1c(Cl)cccc1NC(=O)C1CCCN(c2ncnc3onc(C)c23)C1 (stereo unspecified) | – | inactive: -4.63% |
| O=C(Cn1c(=O)cnc2ccccc21)NNC(=O)c1ccc(Cl)cc1 | inconclusive: 22.4 µM [inhibitor, single point] | – |
| O=C(Nc1ccccc1)c1ccc(OC(=O)c2cc3ccccc3o2)cc1 | inconclusive: 39.8 µM [inhibitor, single point] | – |
| COCCCNC(=O)c1ccccc1Oc1ccccc1 | – | inactive: -1.02% [at 102 µM] |
| CCn1c(SCC(=O)Nc2cc(C)on2)nnc1-c1ccco1 | inconclusive: 1 µM [inhibitor, full curve, poor fit] | – |
| O=C(CCS(=O)(=O)c1ccc(Br)cc1)Nc1ccc2c(c1)OCO2 | inconclusive: 39.8 µM [inhibitor, single point] | – |
| COc1ccc(OCc2cc(C(=O)O)c(C)o2)cc1 | active: 44.7 µM | – |
| Cc1ccc(Cl)cc1N1CCN(C(=O)c2ccc3c(c2)CCN3S(=O)(=O)c2ccccc2)CC1 | – | inactive: -9.23% |
| CN(CC(=O)Nc1ccccc1F)S(=O)(=O)c1ccc2c(c1)c(=O)n(C)c(=O)n2C | inconclusive: 1.26 µM [inhibitor, full curve, poor fit] | – |
| CC1CCN(S(=O)(=O)c2ccc3c(c2)c(=O)c(C(=O)NC(C)c2ccccc2)cn3C)CC1 (stereo unspecified) | inconclusive: 20 µM [inhibitor, partial curve, poor fit] | – |
| O=C(CN1C(=O)COc2ccccc21)N1CCc2ccccc2C1 | inconclusive: 39.8 µM [inhibitor, partial curve, poor fit] | – |
| CCOC(=O)C1=NN(c2ccc(Cl)cc2)C(c2ccccc2)CC1=O (stereo unspecified) | inconclusive: 28.2 µM [inhibitor, single point] | – |
| COc1ccc(C(NC(=O)c2cccc(F)c2)c2ccccc2)cc1 (stereo unspecified) | inconclusive: 3.55 µM [inhibitor, partial curve, poor fit] | – |
| CC(C)CN(C(=O)COC(=O)c1ccc([N+](=O)[O-])s1)c1c(N)n(Cc2ccccc2)c(=O)[nH]c1=O | inconclusive: 50.1 µM [inhibitor, partial curve] | – |
| Cc1c(NC(=O)C(C)OC(=O)c2c3c(nc4ccccc24)CCC3)c(=O)n(-c2ccccc2)n1C (stereo unspecified) | active: 50.1 µM | – |
| O=C(O)c1cccc(N2C(=O)C3CC=C(Cl)CC3C2=O)c1 (stereo unspecified) | active: 44.7 µM | – |
| O=C(Nc1sccc1C(=O)NCc1ccco1)c1cccnc1 | inconclusive: 39.8 µM [inhibitor, single point] | – |
| CC1=C(C#N)C(Nc2cccc(C)n2)(C(F)(F)F)C(=O)N1 (stereo unspecified) | inconclusive: 79.4 µM [inhibitor, partial curve, poor fit] | – |
| CCOC(=O)c1sc2nc(CSc3ccccc3Cl)[nH]c(=O)c2c1C | – | inactive: -29.9% [at 102 µM] |
| CCN(C(=O)CSc1nnc(-c2ccccc2Cl)n1C1CCCC1)C1CCS(=O)(=O)C1 (stereo unspecified) | inconclusive: 39.8 µM [inhibitor, single point] | – |
| CCCCn1c(=O)[nH]c(=O)c2c1nc(-c1ccccc1OC(F)F)n2C | – | inactive: -2.89% [at 102 µM] |

— PubChem BioAssay AID504332 (National Center for Advancing Translational Sciences (NCATS), 2011)
